Test results published in the supplement of paper PMC11417369.
± gives the standard deviation of the averaged measurements. The list shows a part of the results.

tested on: PfAP2-I AP2 domain 3 (GST-tagged); assay: gcPBM binding intensity (ln(normalized median fluorescence intensity)); higher = stronger DNA binding
Method in brief: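 Binding intensity is the highest Masliner-normalised natural-log median intensity over replicate spots in either probe orientation. To obtain it, GST-tagged P. falciparum DNA-binding domains made in E. coli were incubated for 1 h on an Agilent 4 × 180k array of primer-extended double-stranded 36-bp intergenic genomic probes plus negative controls. Detection used Alexa488 anti-GST antibody with scanning at 488 nm.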

Row | Sequence | gcPBM binding intensity (ln)
1 | AAAAAATATTGAAGTACACACATTATGAACTTTTTT [CACACA_site1733] | 7.71 ± 0.32
2 | ATAAATAATTATAATTGTACACATATATATATATAC [XGTACX_site3998] | 7.99 ± 0.42
3 | TTCCACATTTTACAGACACACACAATTTATATTACG [CACACA_site8572] | 8.05 ± 0.5
4 | AGAGCATAATAAAACACACACATACATACCTATATA [CACACA_site6566] | 7.84 ± 0.51
5 | TGTTTTTATAATATTAGTACATAATATACATAATTC [XGTACX_site2787] | 7.75 ± 0.4
6 | AATAAATTAATTTTGGGTACATATATATATATATAT [XGTACX_site3807] | 9.46 ± 0.3
7 | TTTACAAAAAATTATACACACACGTACAGATAAATA [CACACA_site4678] | 8.09 ± 0.49
8 | TCCTCATTTTATCATACACACTTGTTTATATGGGTG [CACACA_site4650] | 7.79 ± 0.49
9 | ATAATTTATTTTAAAAGTACTCAATTTGCTTTTCTC [XGTACX_site5749] | 7.68 ± 0.61
10 | ACCCATAAAAATTATGCACACTTAATAAAGCGAAAT [CACACA_site5722] | 10.1 ± 0.57
11 | AAATAATTAAACATATGTACATATTATATATATATA [XGTACX_site6774] | 9.2 ± 0.36
12 | TATATTTATTATAATTGTACATAAAATAAACTAAGA [XGTACX_site4318] | 7.67 ± 0.25
13 | CAAAAAAAAAAAAAAACACACATTAAATTAGAAAGA [CACACA_site7271] | 7.4 ± 0.69
14 | ATATACATTTAAATGTGTACATAATAAAATAAAAAA [XGTACX_site8170] | 8.24 ± 0.45
15 | AATATTTATATTTAGTGTACAGAAATAAAAAAAAAA [XGTACX_site6066] | 8.12 ± 0.58
16 | GCTAATTTATTTTGCAGTACATATATAATAATATAT [XGTACX_site478] | 8.39 ± 0.16
17 | TTTTTATTTAATAGTTGTACATTGAAAAATATGTAT [XGTACX_site3025] | 7.75 ± 0.33
18 | TGATTAAATAAATATATATATTTATATATTATACAG [CACACA_negctrl_site1596] | 7.45 ± 0.44
19 | GCTCTATCAAAAAAATGTACACATATTATCATTCAT [XGTACX_site143] | 8.08 ± 0.44
20 | CAAATAAATATTAAAAGTACACACAGATACACTAAT [XGTACX_site3749] | 7.93 ± 0.42
21 | TATATATATATATATGTGCACTGGACATATTTTTAT [GTGCAC_site9721] | 10.09 ± 0.099
22 | ATTTTTATTTTTATTTGTACTTATATATTCTTAAGC [XGTACX_site4122] | 7.84 ± 0.54

Row | Sequence | gcPBM binding intensity (ln)
23 | TTTTTAAATATAAACAAAAAAAAAAAATATATCAAT [XGTACX_negctrl_site328] | 7.59 ± 0.59
24 | AATACCCAAGGACACACACACACATATATATATATA [CACACA_site8345] | 9.38 ± 0.11
25 | ATAATATAAATACAAACACACAATTGTGTCCACATT [CACACA_site6920] | 7.97 ± 0.4
26 | AAAAATAGACAAAAGAGTACAAGAAAAAAAGGGTTC [XGTACX_site7843] | 8.17 ± 0.67
27 | ATATTCCTACATACAACACACGACGTTCTCATAAGA [CACACA_site231] | 8.06 ± 0.66
28 | GGAAAATGAAAAACAAAAAAAAAAAAAAAAAAATGA [TGCATGCA_negctrl_site432] | 7.68 ± 0.59
29 | TCTTTTTAGATATATACACACCGTGTCTACCTATAC [CACACA_site7551] | 7.68 ± 0.8
30 | ACATCTGTTATTTGTGGTACTAAAAAAATATATAGT [XGTACX_site8322] | 8 ± 0.41
31 | TTACAATTAATAAAGTGTACTTAACTATTATATATA [XGTACX_site481] | 7.56 ± 0.2
32 | TTTTAAAGTTGTGAGCTTCATTTTTATTTATATGTA [CACACA_negctrl_site1505] | 7.43 ± 0.61
33 | ATATATATATATGTCTGTACATAAAAAATAATAAAT [XGTACX_site3122] | 9.29 ± 0.099
34 | TTGATCTATAATAATACACACTTACATAATTAATTA [CACACA_site6273] | 7.83 ± 0.51
35 | GTCATATTAATATGTACACACATATTTATATTTATA [CACACA_site6798] | 8.11 ± 0.028
36 | TTTTTACTATTTATATGACTAAAAATATATTGAATA [CACACA_negctrl_site188] | 7.49 ± 0.48
37 | TAAATTAATAAACAAGTGCATATATATATATATATA | 10 ± 0.49
38 | CAATTTATTTTTATTACACACTATCCAAGTAATTTC [CACACA_site7402] | 7.83 ± 0.64
39 | TTTTATGTAACATCACGTACTTATATTTAAGTATTC [XGTACX_site7459] | 8 ± 0.45
40 | CAAGCACACGGACACACACACACACGCGCACGCACA [CACACA_site6307] | 8.37 ± 0.48
41 | AAATATATCATACAAAGTACTTGGAATTAATATATA [XGTACX_site8907] | 7.31 ± 0.35
42 | AATATAATATAATGCACACATAAAACAAAAAAAAAA [CACACA_site3012] | 11 ± 0.86
43 | TAATTTTTCCAACTTTGTACAGATATATTAATAAAA [XGTACX_site7856] | 7.74 ± 0.4
44 | TCTTTTAAATAACAACATAAATAAATAAATAAATAA [GTGCAC_negctrl_site319] | 8.42 ± 0.71
